# The other results are listed elsewhere or left out.
# B1: Sebin2 (Coprinopsis cinerea), A8PE78 (protein)
# chain: MTTPFYAYCHNVQDDNTWRLGLVFANRSTADEWWRAISEATSSIPITKSITRVTPQYYTHDIRVWNMYNFFVDGNIKSISDKFRGRLFITLEYDRSGRGVSVFPPLHIVDHVSGNWYYIRSKTAPHLFWFYDETRNAIYASKEKRTRFKVSIRNPSPQTPKDAIMINSDDVVIHIKESLYVGVDSYLGHIIPTRAYRTFKFGELEGGAIAGIEVAENAEERCSSTFDGASLYFVGPDSSSPGEPWELV
# Columns and labels:
# Assay in all cases: glycan array binding signal (z-score within array); higher = stronger binding
# Settings in all cases: glycan notation: IUPAC condensed, linker removed
# [1] = biological target: Fuc(a1-2)Gal(b1-4)GlcNAc(b1-3)Gal(b1-4)GlcNAc(b1-2)Man(a1-3)[Fuc(a1-2)Gal(b1-4)GlcNAc(b1-3)Gal(b1-4)GlcNAc(b1-2)Man(a1-6)]Man(b1-4)GlcNAc(b1-4)GlcNAc
# Outline: (§1)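 The binding signal is a Z-score computed within each array and averaged over linkers. Arrays of the same protein sequence at different concentrations or buffers were also averaged together. Data originate from 3228 arrays in the Consortium for Functional Glycomics database, kept only where the protein sequence was available.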
# [2] = biological target: Fuc(a1-2)Gal(b1-4)GlcNAc(b1-3)Gal(b1-4)GlcNAc(b1-3)Gal(b1-4)GlcNAc
# Outline: as §1
# [3] = biological target: Fuc(a1-2)Gal(b1-4)GlcNAc(b1-3)GalNAc
# Outline: as §1
# [4] = biological target: Fuc(a1-2)Gal(b1-4)GlcNAc(b1-3)[Fuc(a1-2)Gal(b1-4)GlcNAc(b1-6)]GalNAc
# Outline: as §1
# [5] = biological target: Fuc(a1-2)Gal(b1-4)GlcNAc(b1-3)[Fuc(a1-3)[Gal(b1-4)]GlcNAc(b1-6)]Gal(b1-4)Glc
# Outline: as §1
# [6] = biological target: Fuc(a1-2)Gal(b1-4)GlcNAc(b1-6)GalNAc
# Outline: as §1
# [7] = biological target: Fuc(a1-2)Gal(b1-4)GlcNAc6S
# Outline: as §1
# [8] = biological target: Fuc(a1-2)Gal(b1-4)[Fuc(a1-3)]GlcNAc
# Outline: as §1
# [9] = biological target: Fuc(a1-2)Gal(b1-4)[Fuc(a1-3)]GlcNAc(b1-2)Man(a1-3)[Fuc(a1-2)Gal(b1-4)[Fuc(a1-3)]GlcNAc(b1-2)Man(a1-6)]Man(b1-4)GlcNAc(b1-4)[Fuc(a1-6)]GlcNAc
# Outline: as §1
# [10] = biological target: Fuc(a1-2)Gal(b1-4)[Fuc(a1-3)]GlcNAc(b1-2)[Fuc(a1-2)Gal(b1-4)[Fuc(a1-3)]GlcNAc(b1-4)]Man(a1-3)[Fuc(a1-2)Gal(b1-4)[Fuc(a1-3)]GlcNAc(b1-2)Man(a1-6)]Man(b1-4)GlcNAc(b1-4)GlcNAc
# Outline: as §1
# [11] = biological target: Fuc(a1-2)Gal(b1-4)[Fuc(a1-3)]GlcNAc(b1-3)Gal(b1-4)[Fuc(a1-3)]GlcNAc
# Outline: as §1
# [12] = biological target: Fuc(a1-2)Gal(b1-4)[Fuc(a1-3)]GlcNAc(b1-3)Gal(b1-4)[Fuc(a1-3)]GlcNAc(b1-3)Gal(b1-4)[Fuc(a1-3)]GlcNAc
# Outline: as §1
# [13] = biological target: Fuc(a1-2)Gal(b1-4)[Fuc(a1-3)]GlcNAc(b1-3)GalNAc
# Outline: as §1
# [14] = biological target: Fuc(a1-2)Gal(b1-4)[Fuc(a1-3)]GlcNAc(b1-3)[Neu5Ac(a2-6)Gal(b1-4)GlcNAc(b1-6)]Gal(b1-4)Glc
# Outline: as §1
# [15] = biological target: Fuc(a1-2)Gal3S(b1-4)GlcNAc
# Outline: as §1
# [16] = biological target: Fuc(a1-2)Gal6S(b1-3)GlcNAc
# Outline: as §1
# [17] = biological target: Fuc(a1-2)Gal6S(b1-3)GlcNAc6S
# Outline: as §1
# Fuc(a1-2)Gal6S(b1-4)Glc = biological target: Fuc(a1-2)Gal6S(b1-4)Glc
# Outline: as §1
# [18] = biological target: Fuc(a1-2)Gal6S(b1-4)Glc6S
# Outline: as §1
# Fuc(a1-2)[Gal(a1-3)]Gal = biological target: Fuc(a1-2)[Gal(a1-3)]Gal
# Outline: as §1
# [19] = biological target: Fuc(a1-2)[Gal(a1-3)]Gal(b1-3)GalNAc
# Outline: as §1
# [20] = biological target: Fuc(a1-2)[Gal(a1-3)]Gal(b1-3)GalNAc(b1-3)Gal(a1-4)Gal(b1-4)Glc
# Outline: as §1
# [21] = biological target: Fuc(a1-2)[Gal(a1-3)]Gal(b1-3)GlcNAc
# Outline: as §1
# [22] = biological target: Fuc(a1-2)[Gal(a1-3)]Gal(b1-3)GlcNAc(b1-2)Man(a1-3)[Fuc(a1-2)[Gal(a1-3)]Gal(b1-3)GlcNAc(b1-2)Man(a1-6)]Man(b1-4)GlcNAc(b1-4)GlcNAc
# Outline: as §1
# [23] = biological target: Fuc(a1-2)[Gal(a1-3)]Gal(b1-3)GlcNAc(b1-2)Man(a1-3)[Fuc(a1-2)[Gal(a1-3)]Gal(b1-3)GlcNAc(b1-2)Man(a1-6)]Man(b1-4)GlcNAc(b1-4)[Fuc(a1-6)]GlcNAc
# Outline: as §1
# [24] = biological target: Fuc(a1-2)[Gal(a1-3)]Gal(b1-3)GlcNAc(b1-3)GalNAc
# Outline: as §1
# [25] = biological target: Fuc(a1-2)[Gal(a1-3)]Gal(b1-3)GlcNAc(b1-6)GalNAc
# Outline: as §1
# [26] = biological target: Fuc(a1-2)[Gal(a1-3)]Gal(b1-4)Glc
# Outline: as §1
# [27] = biological target: Fuc(a1-2)[Gal(a1-3)]Gal(b1-4)GlcNAc
# Outline: as §1
# [28] = biological target: Fuc(a1-2)[Gal(a1-3)]Gal(b1-4)GlcNAc(b1-2)Man
# Outline: as §1
# [29] = biological target: Fuc(a1-2)[Gal(a1-3)]Gal(b1-4)GlcNAc(b1-2)Man(a1-3)[Fuc(a1-2)[Gal(a1-3)]Gal(b1-4)GlcNAc(b1-2)Man(a1-6)]Man(b1-4)GlcNAc(b1-4)GlcNAc
# Outline: as §1
# [30] = biological target: Fuc(a1-2)[Gal(a1-3)]Gal(b1-4)GlcNAc(b1-2)Man(a1-3)[Fuc(a1-2)[Gal(a1-3)]Gal(b1-4)GlcNAc(b1-2)Man(a1-6)]Man(b1-4)GlcNAc(b1-4)[Fuc(a1-6)]GlcNAc
# Outline: as §1
# [31] = biological target: Fuc(a1-2)[Gal(a1-3)]Gal(b1-4)GlcNAc(b1-3)GalNAc
# Outline: as §1
# [32] = biological target: Fuc(a1-2)[Gal(a1-3)]Gal(b1-4)GlcNAc(b1-3)[Fuc(a1-2)[Gal(a1-3)]Gal(b1-4)GlcNAc(b1-6)]GalNAc
# Outline: as §1
# [33] = biological target: Fuc(a1-2)[Gal(a1-3)]Gal(b1-4)GlcNAc(b1-6)GalNAc
# Outline: as §1
# [34] = biological target: Fuc(a1-2)[Gal(a1-3)]Gal(b1-4)[Fuc(a1-3)]Glc
# Outline: as §1
# [35] = biological target: Fuc(a1-2)[Gal(a1-3)]Gal(b1-4)[Fuc(a1-3)]GlcNAc
# Outline: as §1
# [36] = biological target: Fuc(a1-2)[Gal(a1-3)]Gal(b1-4)[Fuc(a1-3)]GlcNAc(b1-3)GalNAc
# Outline: as §1
# [37] = biological target: Fuc(a1-2)[Gal(a1-4)]Gal(b1-4)GlcNAc
# Outline: as §1
# [38] = biological target: Fuc(a1-2)[GalNAc(a1-3)]Gal
# Outline: as §1
# [39] = biological target: Fuc(a1-2)[GalNAc(a1-3)]Gal(b1-3)GalNAc(a1-3)[Fuc(a1-2)]Gal(b1-4)GlcNAc
# Outline: as §1
# [40] = biological target: Fuc(a1-2)[GalNAc(a1-3)]Gal(b1-3)GalNAc(b1-3)Gal(a1-4)Gal(b1-4)Glc
# Outline: as §1
# [41] = biological target: Fuc(a1-2)[GalNAc(a1-3)]Gal(b1-3)GlcNAc
# Outline: as §1
# [42] = biological target: Fuc(a1-2)[GalNAc(a1-3)]Gal(b1-3)GlcNAc(b1-2)Man(a1-3)[Fuc(a1-2)[GalNAc(a1-3)]Gal(b1-3)GlcNAc(b1-2)Man(a1-6)]Man(b1-4)GlcNAc(b1-4)GlcNAc
# Outline: as §1
# [43] = biological target: Fuc(a1-2)[GalNAc(a1-3)]Gal(b1-3)GlcNAc(b1-2)Man(a1-3)[Fuc(a1-2)[GalNAc(a1-3)]Gal(b1-3)GlcNAc(b1-2)Man(a1-6)]Man(b1-4)GlcNAc(b1-4)[Fuc(a1-6)]GlcNAc
# Outline: as §1
binder,measurement,setting,value
B1,glycan array binding signal (z-score),[1],-0.414
same,glycan array binding signal (z-score),[2],-0.116
same,glycan array binding signal (z-score),[3],-0.141
same,glycan array binding signal (z-score),[4],0.577
same,glycan array binding signal (z-score),[5],0.351
same,glycan array binding signal (z-score),[6],-0.068
same,glycan array binding signal (z-score),[7],-0.027
same,glycan array binding signal (z-score),[8],0.122
same,glycan array binding signal (z-score),[9],-0.178
same,glycan array binding signal (z-score),[10],0.336
same,glycan array binding signal (z-score),[11],0.623
same,glycan array binding signal (z-score),[12],-0.227
same,glycan array binding signal (z-score),[13],0.057
same,glycan array binding signal (z-score),[14],-0.237
same,glycan array binding signal (z-score),[15],-0.238
same,glycan array binding signal (z-score),[16],-0.062
same,glycan array binding signal (z-score),[17],0.437
same,glycan array binding signal (z-score),Fuc(a1-2)Gal6S(b1-4)Glc,-0.035
same,glycan array binding signal (z-score),[18],-0.75
same,glycan array binding signal (z-score),Fuc(a1-2)[Gal(a1-3)]Gal,-0.23
same,glycan array binding signal (z-score),[19],0.288
same,glycan array binding signal (z-score),[20],0.225
same,glycan array binding signal (z-score),[21],-0.084
same,glycan array binding signal (z-score),[22],-0.103
same,glycan array binding signal (z-score),[23],0.09
same,glycan array binding signal (z-score),[24],-0.042
same,glycan array binding signal (z-score),[25],-0.148
same,glycan array binding signal (z-score),[26],0.343
same,glycan array binding signal (z-score),[27],-0.332
same,glycan array binding signal (z-score),[28],-0.146
same,glycan array binding signal (z-score),[29],0.504
same,glycan array binding signal (z-score),[30],-0.196
same,glycan array binding signal (z-score),[31],-0.123
same,glycan array binding signal (z-score),[32],4.59
same,glycan array binding signal (z-score),[33],-0.321
same,glycan array binding signal (z-score),[34],-0.403
same,glycan array binding signal (z-score),[35],-0.033
same,glycan array binding signal (z-score),[36],0.289
same,glycan array binding signal (z-score),[37],-0.002
same,glycan array binding signal (z-score),[38],-0.171
same,glycan array binding signal (z-score),[39],-0.066
same,glycan array binding signal (z-score),[40],0.203
same,glycan array binding signal (z-score),[41],-0.055
same,glycan array binding signal (z-score),[42],-0.214
same,glycan array binding signal (z-score),[43],0.082

# From the supplement of paper PMC8728848
